± gives the standard deviation of the averaged measurements. The list shows a part of the results.
Tested on: PfAP2-G AP2 domain (GST-tagged)
Assay: gcPBM binding intensity (ln(normalized median fluorescence intensity)); higher = stronger DNA binding
In short: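 Binding intensity values are the highest Masliner-normalised natural-log median intensity among replicate spots of either probe orientation. The binding step lasted 1 h in 1× PBS with 1% milk, 0.2 mg/ml BSA, 0.5% salmon testes DNA and 0.03% Triton X-100, using GST-tagged P. falciparum DNA-binding domains expressed in E. coli on an Agilent 4 × 180k array of primer-extended double-stranded 36-bp intergenic genomic probes plus negative controls. Alexa488 anti-GST antibody and a 488 nm scan detected bound protein.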

Sequence | gcPBM binding intensity (ln)
TGCTTATCCATTTCTACACACAAAAAAAAAAAAAAA [CACACA_site37] | 10 ± 0.52
CACCCGCACGTATTTGCACACATTGCCACGTAATTA [CACACA_site5786] | 10.6 ± 0.31
TATTTTTACAATGGTAGTACCATTTTGAATCTTTGT [XGTACX_site6092] | 11.2 ± 0.79
TTATATGTATGAACAAGTACATGCTATAATTATAAA [XGTACX_site1399] | 10.9 ± 0.71
TATATATATATATACACACATACATATATATATTTG [CACACA_site857] | 10.1 ± 0.38
CGTAGCCCCACTAACACACACAAATATACTCAATCA [CACACA_site5587] | 10.1 ± 0.22
TTTTTTTTTTTTTGATGTACAATAATTAAAGAGTAA [XGTACX_site8403] | 11.2 ± 1.1
AATAACTATATATGTGTGCACAAAAATTTGACATAA | 10.7 ± 0.36
AGTAGTCTGGAGAAGAGTACATAGTTTCTGGTAGCT [XGTACX_site2023] | 11.2 ± 0.83
ATATATATATATATATGTACATATATACATATATGT [XGTACX_site1521] | 11.1 ± 0.61
ATATTTACCATTGTATGTACATATATAAAATATATC [XGTACX_site3237] | 11.1 ± 0.66
GTATATATATATATATGTACATATTTAGAGTTCTGT [XGTACX_site5357] | 11.2 ± 0.69
AAAACAAATGAGTACACACACATAAAAATTGAAAAT [CACACA_site199] | 11.5 ± 0.9
TAAAGAAAAAAATGTTGTACTTTATGAAACATATTT [XGTACX_site412] | 11.2 ± 0.79
AACATATACACGAACACACACACATATATATATATA [CACACA_site502] | 10.3 ± 0.26
TTATAATATTGTGGTATACACACCTTACAAAAAGGT [CACACA_site2878] | 10.5 ± 0.28
GGGAGAAATTTATACATACACACATATATATATTAT [CACACA_site4039] | 9.955 ± 0.078
AAGAAAAACTTTACGTGTACCAAACATCCTGCCGAC [XGTACX_site4895] | 11 ± 0.52
TAAACCTTAAAATATTTCTCATGTTTAACTTATATT [GTGCAC_negctrl_site233] | 9.75 ± 0.057
AAAAAATAATTGAAGTGTACGTACAATGATTTTACT [XGTACX_site7663] | 11.8 ± 1.1
GTATTCTACAGACACATACACACATATATATATATA [CACACA_site3427] | 10.29 ± 0.085
ATATAAATAATATAAATACACACTAAAAAAAATATA [CACACA_site542] | 10.07 ± 0.057
TTTATTTTCATATGAACACACATATATATATTATAA [CACACA_site2369] | 10.2 ± 0.24

Sequence | gcPBM binding intensity (ln)
TGTTCTGAACGGTTCATGCACTTTTTTTTGTTAATT | 10.2 ± 0.21
CTGTTTTTGTTTTAAAGTACATTGTTCAATATACAT [XGTACX_site5288] | 11.1 ± 0.61
TACAATGTGGATAATTGTACAAAACCGATAAGAGGG [XGTACX_site6453] | 10.8 ± 0.42
TTATATACCCTAATATGTTTTATTATTATTATATAT [TGCATGCA_negctrl_site6] | 9.945 ± 0.078
TATATTCTACAAGAATTATGAATTGTCAGACCAAAT [CACACA_negctrl_site1101] | 10.2 ± 0.28
TATATTATATACGTCTGTACACAAATGAGAGGTAAA [XGTACX_site5538] | 11.5 ± 0.75
ATGTTAAGAATAATTAGTACTTACATATGTATAATA [XGTACX_site4419] | 10.9 ± 0.57
ATAATTTATATTCAGAAACACACGAAAAAAAAAAAT [CACACA_site1296] | 10 ± 0.12
AACTAAACAAAAGTTACACACATCATACGATATTAT [CACACA_site3180] | 9.92 ± 0.057
AGCAGAGTTACAATTTGTACGTAATTGATATAGATA [XGTACX_site4051] | 11.3 ± 0.84
AACATATTATCTTGTGAAAATAATATAAGTCACATT [TGCATGCA_negctrl_site339] | 9.98 ± 0.2
ATATATATATATATTTGTACAGAAAATATTTTAATA [XGTACX_site3706] | 10.9 ± 0.66
ACAAAATGTAAATAAACACACATATATATATATATA [CACACA_site1281] | 10.2 ± 0.56
TTATAAAAAAAAAAAAAAAATATATATATATATATA [XGTACX_negctrl_site592] | 10.3 ± 1.1
AAAAAATAATAATAAAATGAATAGATATGTATTTAT [TGCATGCA_negctrl_site210] | 9.65 ± 0.39
AATAATATATATTGTACACACAAAATGGGAAAAAAA [CACACA_site5100] | 11.4 ± 0.81
ATATATATATATATGTGTACTTATAAATATATCTGT [XGTACX_site4337] | 11.4 ± 0.93
AAAAGAATTTAGAAGGCATGCACTTAAACATGGATA [TGCATGCA_site699] | 9.945 ± 0.092
ATAAAATATATATGCACACACATATATATTTCATAC [CACACA_site3547] | 9.95 ± 0.099
ACATAAAATAAATATACACACATATGTATATATTAT [CACACA_site3041] | 9.945 ± 0.021
TAAATATTTTATTGTACACACTTTTTATGAATGATG [CACACA_site5694] | 11.6 ± 0.93
AATATTTAAAACAAATCACACATGTATCCATAAATG [CACACA_site5308] | 10.3 ± 0.18
ATATCCCATATGTAATGTACTTACACTTTCTTAATT [XGTACX_site7020] | 11.2 ± 0.75

Sequence | gcPBM binding intensity (ln)
TATAAAAAGGAAAAATAAAAATAAAAATAAAAATTA [CACACA_negctrl_site1822] | 9.48 ± 0.18
TCTTTTAAAAATTAAGTGCATGTCCTTATAACAAAA | 10.8 ± 0.67
AGGGAATAATATTAATGTACATATATGAACTTGTTT [XGTACX_site6089] | 11.1 ± 0.57
ATATATAACTTTTCTTAACACACAAAAAACAAAAAT [CACACA_site8748] | 10.2 ± 0.25
TCATAAACATTATGCACACAAAAATAAAAAAAAATA [CACACA_site1115] | 10.1 ± 0.18
AAAAAAATAATGTACACACACATATCTGTTTATATA [CACACA_site4270] | 11.4 ± 0.83
ATATTTATATATATATGTACATATGTGTGTTTTTAT [XGTACX_site3956] | 10.9 ± 0.51
CGAACAAACAAATAAACACACAAAAAAAGATATATA [CACACA_site6944] | 9.84 ± 0.14
AGATATATTATTAGGTGTACTATAAAATAAATTCAC [XGTACX_site221] | 11.4 ± 0.94
AAAAAAAATTAGGAAACATGCATGTCCCGATAAATA [TGCATGCA_site149] | 10.28 ± 0.049
GTACACTAATTATGTGCACACAAATTAAAGGTCTAC [CACACA_site146] | 11.3 ± 0.49
ATAATAAAATGGAGAGTGCATACATGTTTATTTTAT | 10.2 ± 0.13
AAAATCAAGTAGTATAAAGTAAGTATCATAAAAATA [CACACA_negctrl_site1554] | 10.3 ± 0.16
AAATTTACAATACATTGTACATATTAATAATATTCC [XGTACX_site3646] | 10.9 ± 0.49
AGACATAAGATAATTACACACAATACATCCCTATAT [CACACA_site2227] | 9.86 ± 0.14
TACTTCTACAAGAGAAGTACAATATTTTTTATATTA [XGTACX_site8351] | 11.3 ± 0.81
AATAAAAATTTACTTTGTACACATATTAAATTCAAT [XGTACX_site1957] | 11.2 ± 0.81
TTACTCATGAAAGATACACACATTCATTATATATAT [CACACA_site3252] | 9.97 ± 0.11
TATATAAACCCGTACACACACATATATGTATATATA [CACACA_site3507] | 11.6 ± 0.95
AATGTATATATGTAATGTACATATATAATGTATATA [XGTACX_site6510] | 10.8 ± 0.4
TGTAGTTTGTCCCATGCATGTTCCATTAAAATATAT [TGCATGCA_site854] | 10.7 ± 0.4
TTAACGTAAAATATAGTGCATAGTATCATATTGATA [GTGCAC_site9527] | 9.85 ± 0.15
CAATCAAAGAAACACACACACACCTAAACATAAAAG [CACACA_site2756] | 10.2 ± 0.24

Sequence | gcPBM binding intensity (ln)
AAATGTGTTTATTTAACACACAAAAGAAAAAATATA [CACACA_site6993] | 10.2 ± 0.26
AATGTAAAATATATGTGTACATATGTTTATATATAT [XGTACX_site2216] | 11.5 ± 1.1
TATAACAAGTAATGTTGTACATTGTATTATGTAATA [XGTACX_site6372] | 10.9 ± 0.64
GTGTGTTGTATATACTGTACATACTTTATATATAGT [XGTACX_site1876] | 11.3 ± 0.63
TAAGTTCCCTTTGAATGTACATATAATGAAAAGAAA [XGTACX_site826] | 11.1 ± 0.58
TTCCCTTTTGTAAAATGTACATATATATTTAAACAA [XGTACX_site3263] | 11.2 ± 0.54
TTTTTATTAAAATGTATTTTAGGAAAAAACAAAAAA [XGTACX_negctrl_site437] | 10.1 ± 0.31
AAAAAACTTTTAAGCACACACATAGATAATATAGAT [CACACA_site6835] | 10.085 ± 0.007
TTTTTTTTTTTTGTCACACATATTTGTATTAATCAT [CACACA_site5235] | 10.1 ± 0.46
CAACATTTGAAACACACACACATACAAACAAACAAA [CACACA_site3306] | 10.4 ± 0.29
ATATAAATATAGCATACACACAAAAAAATAAAATAA [CACACA_site2333] | 9.895 ± 0.035
AATATTAACAATCGCACACATATTATTTTTCCAAAA [CACACA_site4982] | 10.2 ± 0.25
TGAAATGGAAACAACTGTACAAAATAAATATGATAT [XGTACX_site1311] | 10.8 ± 0.4
ATACTTTTATTTTTGGTGCATATATCATGTAGACGT | 10.3 ± 0.16
AATTTATTATTTGTATGTACTCATATGATTCACTTA [XGTACX_site2797] | 11.3 ± 0.86
TATGGAAGAAAATATACACACAAAAAAAAAAAATGT [CACACA_site1486] | 10.1 ± 0.071
TATTTTTATACAATTTAACACGGGTTATAAAATGTA [CACACA_negctrl_site566] | 9.99 ± 0.15
TGTATATCATATATTTGTACTCAATTAATATAAACA [XGTACX_site3970] | 11.2 ± 0.98
AAATGAAATAAATGTAGTACACATATACAATATATA [XGTACX_site6951] | 11.7 ± 1.1
TATATATATTTATAATGTACATATTTTTTTTTATTT [XGTACX_site4761] | 11.3 ± 0.77
TTGTATATATGACTTTTTTATATTTCAATTTTGTGC [CACACA_negctrl_site296] | 9.74 ± 0.19

Reference: the supplement of paper PMC11417369
